Test results published in PMC6919601, “Identification of Plasmodium dipeptidyl aminopeptidase allosteric inhibitors by high throughput screening” (PLoS ONE, 2019).
The campaign covered roughly 110,000 compounds. About 230 (0.21%) showed an effect of 50% or more. This is one part of the list.

target: DPAP1 (Plasmodium falciparum, UniProt Q8IIJ9); assay: primary screen, percent inhibition; read by cleavage of a fluorogenic dipeptide substrate; higher = more effect of the substance; design: species or system P. falciparum D10 trophozoite lysates; single well
Sequence (Q8IIJ9 whole entry, looked up): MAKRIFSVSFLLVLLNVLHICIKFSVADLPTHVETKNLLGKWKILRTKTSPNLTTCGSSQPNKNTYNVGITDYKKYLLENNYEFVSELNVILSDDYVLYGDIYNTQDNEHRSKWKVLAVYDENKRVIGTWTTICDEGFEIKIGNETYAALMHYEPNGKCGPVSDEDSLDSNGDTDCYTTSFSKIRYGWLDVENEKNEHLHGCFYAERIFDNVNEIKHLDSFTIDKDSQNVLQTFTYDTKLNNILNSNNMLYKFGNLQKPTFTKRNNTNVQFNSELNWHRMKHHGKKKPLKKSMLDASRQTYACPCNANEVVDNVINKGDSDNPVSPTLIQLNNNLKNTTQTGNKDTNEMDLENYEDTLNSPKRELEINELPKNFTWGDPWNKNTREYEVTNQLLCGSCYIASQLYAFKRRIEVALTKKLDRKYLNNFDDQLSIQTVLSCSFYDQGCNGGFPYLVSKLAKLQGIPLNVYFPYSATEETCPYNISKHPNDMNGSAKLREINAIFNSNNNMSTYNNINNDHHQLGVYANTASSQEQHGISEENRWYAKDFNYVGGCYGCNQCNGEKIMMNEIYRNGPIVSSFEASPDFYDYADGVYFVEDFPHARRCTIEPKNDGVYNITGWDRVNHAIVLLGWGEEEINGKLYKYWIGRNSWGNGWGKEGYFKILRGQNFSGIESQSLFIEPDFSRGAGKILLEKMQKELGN
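Also: 30 min substrate incubation versus DMSO and 10 µM JCP410 controls.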

| SMILES | % Inhibition @ 10 uM [%] |
| --- | --- |
| COc1ccc(N2CCN(CC3=CC[C@H]4C[C@@H]3C4(C)C)CC2)cc1 | 1.9 |
| CCn1cc(C(=O)Nc2cnn(Cc3ccc(Cl)c(Cl)c3)c2)cn1 | 1.88 |
| CC(C)NC(=O)CN(c1ccccc1F)S(=O)(=O)c1ccccc1 | 3.66 |
| Cc1nnc(N2CCCC(C(=O)NCCCN3CCCC3=O)C2)c2nn(-c3ccccc3)c(C)c12 (stereo not shown) | 2.75 |
| O=C(c1ccccc1)c1ccc2nc(O)c(O)nc2c1 | -0.414 |
| COc1ccc(OC)c2sc(N(CCN(C)C)C(=O)c3cccc(C(F)(F)F)c3)nc12 | -9.64 |
| CCOc1ccc(NS(=O)(=O)c2ccc(Cl)cc2)cc1 | -3.71 |
| COC(=O)C1=C(C)NC(=O)NC1c1ccccc1OC(C)C (stereo not shown) | -1.03 |
| COc1ccc(C(=O)Nc2ccccc2)cc1NC(=O)COc1cccc(C)c1 | -3.37 |
| COc1ccc(C(=O)Nc2nc3nc(C)cc(O)n3n2)cc1OC | -3.08 |
| CCCC(=O)NC1=C(C#N)C2(CCCC2)Cc2ccccc21 | 2.31 |
| CN(Cc1ccccc1)c1ccn(-c2nc(-c3ccccc3)oc2-c2ccccc2)c(=O)n1 | 4.35 |
| CC1=C(C(=O)Nc2ccccc2)C(c2cccs2)N2C(=O)CSC2=N1 (stereo not shown) | -0.105 |
| CCOc1ccccc1/C=C1\N=C(c2ccc(OC)cc2)OC1=O | -1.12 |
| CC(=O)c1cccc(NC(=O)COc2ccc(C3CCCCC3)cc2)c1 | 9.36 |
| Cc1cc2ncn(C(=O)N3CCOCC3)c2cc1C | 2.38 |
| C/C(=N\CCc1ccc(F)cc1)C1=C(O)c2ccccc2C1=O | -1.18 |
| O=C1/C(=C/c2cc(Br)cs2)Cc2ccccc21 | 2.59 |
| CN(C)C(=O)/C(=C\c1ccc(-c2ccc(Cl)cc2)o1)NC(=O)c1ccccc1 | -0.988 |
| CCOC(=O)C1=C(CN2CCc3ccccc3C2)NC(=O)NC1c1ccc(OC(C)C)cc1 (stereo not shown) | -2.83 |
| CCOc1ccc(OCc2ccc(C(=O)Nc3cccc(C)n3)o2)cc1 | -6.7 |
| CCCOc1ccc(C2(C(=O)O)CCCC2)cc1 | 0.685 |

| SMILES | % Inhibition @ 10 uM [%] |
| --- | --- |
| COc1cc(Br)cc2cc(S(=O)(=O)c3ccc(F)c(C)c3)c(=O)oc12 | 2.12 |
| CCn1c(CCNC(=O)c2cccc(C)c2)nc2ccccc21 | 7.25 |
| COc1ccc(-c2c(C)c(C)nc(N)c2C#N)cc1 | 0.51 |
| NC(=O)C1CCCN(Cc2cccc(F)c2)C1 (stereo not shown) | -0.292 |
| O=C(NCc1ccco1)Nc1ccc(Cl)c(Cl)c1 | 2.94 |
| CC1CCCN(C(=O)C2CCCN(c3ncnc4onc(-c5ccc(F)cc5)c34)C2)C1 (stereo not shown) | 4.27 |
| C#CCn1c(CCC)nc2ccccc21 | 1.12 |
| O=C1C2CC=CCC2C(=O)N1c1cc(Cl)ccc1O (stereo not shown) | -1.07 |
| COc1ccc(CNC(=O)c2sc3nc4c(c(C(F)(F)F)c3c2N)CCC4)cc1 | 1.95 |
| O=C(Nc1nc2c(s1)CCCC2)c1ccc2c(c1)CC(c1ccccc1)OC2=O (stereo not shown) | -1.15 |
| Cc1ccc(SCCC(=O)N2CCCCC2)cc1 | -11.6 |
| O=C(/C=C/c1ccccc1)Nc1ncc(Cc2ccccc2Cl)s1 | 10.7 |
| COc1ccc(OC)c(C(=O)c2ccc(C(=O)NC3CCCCC3)cc2)c1 | 4.57 |
| Nc1c(N2CCCCCC2)cnn(-c2ccccc2)c1=O | 2.65 |
| C=CCn1c(SCC(=O)N2CCC(C)CC2)nc2sc3c(c2c1=O)CCCC3 | -3.41 |
| COc1ccc(NC(=O)COc2ccc(Br)c(C)c2)cc1 | -3.23 |
| COc1ccccc1CNC(=O)CCCc1nnc2n3nc(C)nc3c3ccccc3n12 | 0.44 |
| COc1cc2c(cc1OC)CN(C(=O)CSc1ccc3ccccc3n1)CC2 | -5.79 |
| CCN1CCN(c2ccc3nsnc3c2[N+](=O)[O-])CC1 | -1.69 |
| COCc1cc(C)nc(SCC(=O)Nc2nc(-c3ccccc3)c(C)s2)c1C#N | 6.69 |
| COc1cc(OC)c(C2N(c3cc(C)on3)C(=O)C3CCCN32)cc1OC (stereo not shown) | -0.499 |
| CCc1cc(C(=O)N2CCOCC2)c(NC2=NS(=O)(=O)c3ccccc32)s1 | -1.69 |

| SMILES | % Inhibition @ 10 uM [%] |
| --- | --- |
| C=C(C)CSc1nc2c(cc1C#N)CCC2 | 6.19 |
| O=C(C1=C(O)C(=O)N(Cc2cccnc2)C1c1ccc(F)cc1)c1ccc(F)cc1 (stereo not shown) | 6.73 |
| O=C1NCC(O)=C1/C=N/CCc1ccc(O)cc1 | -1.06 |
| O=C(Cc1nnc(NC(=O)c2ccco2)s1)NCc1ccccc1 | 17.3 |
| COCCCNC(=O)C1CCN(S(=O)(=O)c2ccc(OC)c(OC)c2)CC1 | -1.92 |
| CCc1cccc(C)c1NC(=O)c1cccnc1 | -6.79 |
| CN(C1CCCCC1)S(=O)(=O)c1ccccc1[N+](=O)[O-] | -1.62 |
| CCc1ccc(CNC(=O)Nc2cn(CC(C)C)c(=O)c3ccccc23)cc1 | -3.64 |
| CC(C)(C)C1CCC(N2CCN(c3ccc([N+](=O)[O-])cc3)CC2)CC1 (stereo not shown) | 0.472 |
| CC12CN(Cc3ccc(Br)cc3)CC(C)(CN(C(=S)Nc3ccccc3)C1)C2 | -0.807 |
| CN(Cc1ccco1)C(=O)c1cc2c(s1)-c1ccccc1OC2 | -3.08 |
| CC(NC(=O)c1nc(-c2ccc(Br)o2)no1)c1ccccc1 (stereo not shown) | 2.62 |
| O=C(CCc1ccc(S(=O)(=O)NCc2ccccc2)cc1)N1CCc2ccccc2C1 | -1.61 |
| CC12CC=CCC1C(=O)N(CCN1C(=O)C3CC=CCC3(C)C1=O)C2=O (stereo not shown) | -3.04 |
| COc1ccc(-c2cc(C(=O)NCc3cccs3)c3ccccc3n2)cc1 | 1.17 |
| COc1ccc(-n2nc3c(N4CCC(C(=O)N5CCCCCC5)CC4)nnc(C)c3c2C)cc1 | 3.42 |
| CCc1ccc2ncc(S(=O)(=O)c3ccccc3)c(N3CCCC3)c2c1 | -3.69 |
| CC(C)CN(CCNC(=O)COCc1cc(-c2ccc(F)cc2)on1)CC(C)C | -6.43 |
| CCCCN(CC)CCNC(=O)c1cc2cc3ccc(OC)cc3nc2o1 | -5.22 |
| COc1ccc(/C=C(\C#N)c2nc3ccccc3[nH]2)c(OC)c1 | -0.414 |
